Our source for the cytotoxicity call and growth inhibition call values is the antibiotic and cytotoxicity screens of Wong et al. (2023).

The list shows a part of the results.

Assay [1] has as its system HSkMC (human skeletal muscle cells). Description: cytotoxicity call (relative viability < 0.9). The following applies: 10 µM.
The test system of assay [2] is HepG2. Nature of the assay: cytotoxicity call (relative viability < 0.9). The following applies: 10 µM.
In assay [3] the test system is S. aureus RN4220. Description: growth inhibition call (relative growth <= 0.2). The following applies: 50 µM.

Consider `CC(C)C#Cc1ccc2c(c1)O[C@@H](CN(C)C(=O)c1cnccn1)[C@@H](C)CN([C@H](C)CO)S2(=O)=O`, for which the cytotoxicity call in assay [1] and in assay [2] was “inactive” throughout. In addition, the growth inhibition call in assay [3] was “inactive”.

As for `COc1ccc(CN(C)C[C@@H]2Oc3ccc(NC(=O)Nc4cccc5ccccc45)cc3C(=O)N([C@@H](C)CO)C[C@H]2C)cc1`, the cytotoxicity call in assay [1] and in assay [2] was “inactive” each time. In addition, the growth inhibition call in assay [3] is “inactive”.

For `NNC(=O)c1cccc(C(=O)NO)c1`, the cytotoxicity call in assay [1] and in assay [2] was “inactive” in each case. The growth inhibition call in assay [3] was “inactive”.

As to `C[C@@H]1CN([C@H](C)CO)C(=O)c2cc(NC(=O)Cc3ccccc3)ccc2O[C@@H]1CN(C)S(=O)(=O)c1ccccc1`, the cytotoxicity call in assay [1] and in assay [2] was “inactive” throughout. Further, the growth inhibition call in assay [3] is “inactive”.

As for `C[C@@H]1CN([C@H](C)CO)C(=O)c2cc(NC(=O)CCCN(C)C)ccc2O[C@@H](C)CCCCO[C@H]1CN(C)Cc1ccc(C(F)(F)F)cc1`, the cytotoxicity call in assay [1] and in assay [2] was “inactive” in each case. Further, the growth inhibition call in assay [3] is “inactive”.

Regarding `COCC#Cc1cnc2c(c1)C(=O)N([C@@H](C)CO)C[C@H](C)[C@H](CN(C)C(=O)Nc1ccc(OC)cc1)O2`, the cytotoxicity call in assay [1] and in assay [2] was “inactive” throughout. Moreover, in assay [3], the growth inhibition call was “inactive”.

With `C[C@H]1CN([C@@H](C)CO)C(=O)c2cccc(NS(=O)(=O)c3ccc(Cl)cc3)c2O[C@H]1CN(C)C(=O)Nc1ccc(C(F)(F)F)cc1`, in assay [1], the cytotoxicity call is “active”. The cytotoxicity call in assay [2] was “inactive”. Also, the growth inhibition call in assay [3] is “inactive”.

On to `COc1ccc(S(=O)(=O)N(C)C[C@H]2Oc3ccc(NC(=O)CCN4CCOCC4)cc3CC(=O)N([C@@H](C)CO)C[C@@H]2C)cc1`, for which the cytotoxicity call in assay [1] and in assay [2] was “inactive” in each case. In addition, the growth inhibition call in assay [3] is “inactive”.

With `C[C@H]1CN([C@@H](C)CO)C(=O)c2cc(NS(=O)(=O)c3cn(C)cn3)ccc2O[C@H]1CN(C)C(=O)Nc1ccc2c(c1)OCO2`, the cytotoxicity call in assay [1] and in assay [2] was “inactive” in each case. For the same compound, the growth inhibition call in assay [3] is “inactive”.

In the case of `CO[C@@H]1CN(C)C(=O)c2cc(NS(=O)(=O)c3cn(C)cn3)ccc2OC[C@@H](C)N(CC2CC2)C[C@H]1C`, the cytotoxicity call in assay [1] and in assay [2] was “inactive” throughout. In assay [3], the growth inhibition call was “inactive”.

As for `Cc1ccc(C(=O)Nc2ccc(S(=O)(=O)O)c3cc(S(=O)(=O)O)cc(S(=O)(=O)O)c23)cc1NC(=O)c1cccc(NC(=O)Nc2cccc(C(=O)Nc3cc(C(=O)Nc4ccc(S(=O)(=O)O)c5cc(S(=O)(=O)O)cc(S(=O)(=O)O)c45)ccc3C)c2)c1`, the cytotoxicity call in assay [1] and in assay [2] was “inactive” each time. For the same compound, the growth inhibition call in assay [3] was “inactive”.

With `Cc1nc(=O)c(/C=N/O)c(O)[nH]1`, the cytotoxicity call in assay [1] and in assay [2] was “inactive” throughout. Moreover, in assay [3], the growth inhibition call is “inactive”.

Turning to `COc1ccc(S(=O)(=O)N(C)C[C@@H]2Oc3c(NC(=O)Nc4c(C)noc4C)cccc3C(=O)N([C@@H](C)CO)C[C@@H]2C)cc1`, the cytotoxicity call in assay [1] and in assay [2] was “inactive” throughout. Moreover, the growth inhibition call in assay [3] was “inactive”.

As to `Cn1cnc(=N)c2[nH]cnc21`, the cytotoxicity call in assay [1] and in assay [2] was “inactive” each time. The growth inhibition call in assay [3] was “inactive”.

For the compound `C[C@@H]1CN([C@@H](C)CO)C(=O)c2ccccc2-c2ccccc2CO[C@@H]1CN(C)C(=O)Nc1cccc(F)c1`, the cytotoxicity call in assay [1] and in assay [2] was “inactive” throughout. Besides, the growth inhibition call in assay [3] is “inactive”.

Regarding `Cc1ccc(S(=O)(=O)Nc2ccc3c(c2)C(=O)N([C@@H](C)CO)C[C@H](C)[C@H](CN(C)C(=O)Cc2ccccc2)OCCCC[C@H](C)O3)cc1`, the cytotoxicity call in assay [1] and in assay [2] was “inactive” in each case. The growth inhibition call in assay [3] was “inactive”.

Regarding `O=C(COc1ccccc1)Nc1nnc[nH]1`, the cytotoxicity call in assay [1] and in assay [2] was “inactive” in each case. Further, the growth inhibition call in assay [3] is “inactive”.

Take `Cc1ccc(S(=O)(=O)N(C)C[C@H]2Oc3cc(Br)ccc3S(=O)(=O)N([C@@H](C)CO)C[C@@H]2C)cc1`: the cytotoxicity call in assay [1] and in assay [2] was “inactive” each time. Besides, the growth inhibition call in assay [3] is “inactive”.

For `C[C@@H]1CN([C@@H](C)CO)C(=O)c2cc(NS(=O)(=O)c3ccc(Cl)cc3)ccc2O[C@@H](C)CCCCO[C@H]1CN(C)C(=O)Cc1ccccc1`, the cytotoxicity call in assay [1] and in assay [2] was “inactive” throughout. For the same compound, the growth inhibition call in assay [3] was “inactive”.

As for `C[C@@H]1CN([C@@H](C)CO)C(=O)c2cc(NC(=O)Nc3ccc(C(F)(F)F)cc3)ccc2O[C@H]1CN(C)S(=O)(=O)c1ccc(Cl)cc1`, the cytotoxicity call in assay [1] was “inactive”. Besides, the cytotoxicity call in assay [2] is “active”. The growth inhibition call in assay [3] is “inactive”.

On to `C[C@H]1CN([C@@H](C)CO)C(=O)Cc2cc(NC(=O)Nc3ccc(C(F)(F)F)cc3)ccc2O[C@H]1CN(C)C(=O)NC1CCCCC1`, for which the cytotoxicity call in assay [1] and in assay [2] was “inactive” in each case. Besides, the growth inhibition call in assay [3] is “inactive”.

Consider `O=C(CN1CCOCC1)N[C@@H]1CC[C@@H](CCNC(=O)C2CCCCC2)O[C@@H]1CO`, for which the cytotoxicity call in assay [1] and in assay [2] was “inactive” each time. In addition, the growth inhibition call in assay [3] was “inactive”.

On to `C[C@H](CO)N1C[C@H](C)[C@@H](CN(C)S(=O)(=O)c2cccc(F)c2)Oc2ncc(C#CC3CC3)cc2C1=O`, for which the cytotoxicity call in assay [1] and in assay [2] was “inactive” each time. Also, the growth inhibition call in assay [3] was “inactive”.

For `C[C@H](CO)N1C[C@H](C)[C@H](CN(C)C(=O)Nc2ccc(-c3ccccc3)cc2)OCc2ccccc2-c2ccccc2C1=O`, the cytotoxicity call in assay [1] and in assay [2] was “inactive” in each case. Moreover, the growth inhibition call in assay [3] is “inactive”.

As to `C[C@H](CO)N1C[C@H](C)[C@@H](CN(C)S(=O)(=O)c2ccc(F)cc2)Oc2ccc(NC(=O)CCN3CCOCC3)cc2CC1=O`, the cytotoxicity call in assay [1] and in assay [2] was “inactive” in each case. Also, the growth inhibition call in assay [3] was “inactive”.

As to `COc1ccc(CNC(=O)C[C@@H]2C[C@@H]3c4cc(NS(=O)(=O)c5ccc(F)cc5)ccc4O[C@@H]3[C@H](CO)O2)cc1`, the cytotoxicity call in assay [1] and in assay [2] was “inactive” each time. Moreover, the growth inhibition call in assay [3] is “inactive”.

For the compound `COc1ccc(NC(=O)N(C)C[C@@H]2OCc3ccccc3-c3c(n(C)c4ccccc34)C(=O)N([C@@H](C)CO)C[C@@H]2C)cc1`, the cytotoxicity call in assay [1] and in assay [2] was “inactive” each time. In addition, the growth inhibition call in assay [3] is “inactive”.
